Measurements reported in PubChem BioAssay AID1347120 (National Center for Advancing Translational Sciences (NCATS), 2019).
Screen size: about 390,000 compounds; about 930 (0.24%) were called active. The inconclusive results got no clear call from the source; some entries with a clear call stand among them for comparison. The call rests on the fitted dose curve; in most records, active means well fitted activation curve with a large enough effect; inconclusive means small, poorly fitted or top-dose-only effect; inactive means no such curve, though single readings can be large or run the other way. Potencies of inconclusive entries are doubtful fits and often do not repeat.

assay: qHTS for Suppressors of FUS Proteinopathy: Primary screen using FUS-linked yeast assay; further: nearly all actives have a fitted effect of over 55% in size;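 on growth rescue (activation): plate controls were DMSO vehicle for no effect and reference control for full effect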; conditions: S. cerevisiae FUS-expressing, OD600, 24 h; Potency: growth rescue; growth rescue (activation): at 76.6 µM (top of the series)
In short: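 Cultures pregrown in 2.5% raffinose medium are shifted to minimal medium containing 2% galactose to express toxic FUS. Compounds are tested at several concentrations. After 24hr at 30C, growth is quantified at 600 nm absorbance.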
Potency means the concentration at half of the fitted maximal effect; tags describe the fitted curve by direction and shape.

Row | SMILES | growth rescue (activation) | Potency
1 | COc1ccc(CNC(=O)C2CCN(C(=O)N3CCOc4ccc(Cl)cc43)CC2)cc1 | inactive: 39.4% | 
2 | COc1ccccc1-c1nnc(SC(C(=O)c2c[nH]c3ccccc23)c2ccccc2)n1C (stereo not drawn) |  | inconclusive: 28.2 µM [activator, single point]
3 | Cc1ccc(C)c(NC(=O)C2COc3ccccc3O2)c1 (stereo not drawn) | inactive: -25.4% | 
4 | COc1ccc(NC(=O)CCCN2C(=O)CCn3nc(-c4cn(C)c5ccccc45)cc32)cc1 |  | inconclusive: 28.2 µM [activator, single point]
5 | CCCOc1cccc(C(=O)NC(=S)Nc2cccc(C(F)(F)F)c2)c1 | inactive: -15.6% | 
6 | COc1cc(C(O)c2nc(-c3cccs3)cs2)ccc1F (stereo not drawn) | inactive: -14.6% | 
7 | COc1ccc(-c2cc(C(=O)NCCN3CCOCC3)c3ccccc3n2)c(OC)c1 |  | inconclusive: 35.5 µM [activator, partial curve, poor fit]
8 | CCOc1ccc(CCNC(=O)c2cc(-c3ccccc3)c(N3CCOCC3)s2)cc1OC |  | inconclusive: 25.1 µM [activator, single point]
9 | O=C(Nc1nc2ncccn2c1-c1ccc(F)cc1)C1CC1 | inactive: -7.73% | 
10 | Cc1ccc2[nH]c(=O)c(CN(CCc3ccccc3)C(c3nnnn3Cc3ccco3)C(C)C)cc2c1 (stereo not drawn) | inactive: 38.3% | 
11 | COc1ccc2cc(C3=CCCC3(C)C(=O)O)ccc2c1 (stereo not drawn) | inactive: -8.12% | 
12 | COc1cccc(NC(=O)Cn2c(=O)n(Cc3ccc(C(=O)NCc4ccc(C)cc4)cc3)c(=O)c3ccccc32)c1 |  | inconclusive: 50.1 µM [activator, single point]
13 | COc1ccc(Cl)cc1C(=O)NCCS(=O)(=O)N1CCN(c2ccccc2OC)CC1 |  | inconclusive: 8.91 µM [activator, partial curve]
14 | CC(C)(C)c1ccc(NC(=O)N2CCCN(c3ccc([N+](=O)[O-])cn3)CC2)cc1 | inactive: 0.718% | 
15 | COc1ccc2c(c1)c(=O)oc1cc(OCC(=O)N3CCc4ccccc4C3)ccc12 | inactive: 34.2% | 
16 | COc1ccc(CCNC(=O)C2c3ccccc3C(=O)N2Cc2ccccc2)cc1OC (stereo not drawn) | inactive: 18.3% | 
17 | Cc1nn(-c2ccccn2)c2nc(-c3cccs3)cc(C(=O)NCc3ccco3)c12 |  | inconclusive: 17.8 µM [activator, partial curve, poor fit]
18 | COc1ccccc1Nc1ccc(NC(=O)c2cccc([N+](=O)[O-])c2C)cc1 |  | inconclusive: 28.2 µM [activator, partial curve, poor fit]
19 | NS(=O)(=O)c1ccc(CCNC(=O)c2cc(-c3ccco3)nc3ccccc23)cc1 |  | inconclusive: 50.1 µM [activator, single point]
20 | Cc1ccc(NC(=O)C2CCCN2S(=O)(=O)c2cccc3cccnc23)c(C)c1 (stereo not drawn) |  | inconclusive: 8.91 µM [activator, partial curve, poor fit]
21 | NC(CCc1ccccc1)c1csc(Nc2ccc(C(=O)NCCCO)cn2)n1 (stereo not drawn) |  | inconclusive: 31.6 µM [activator, single point]

Row | SMILES | growth rescue (activation) | Potency
22 | COc1cccc(OCc2nnc(SCC(=O)NCc3ccco3)n2CCc2ccccc2)c1 |  | inconclusive: 56.2 µM [activator, partial curve, poor fit]
23 | COc1ccc(-n2cc(-c3ccccc3)c3c(N4CC(C)OC(C)C4)ncnc32)cc1 (stereo not drawn) |  | inconclusive: 31.6 µM [activator, single point]
24 | C/C=C\C=C\C(=O)N1CC2(CC(c3cccc(NC(=O)COc4ccc(Cl)cc4)c3)=NO2)C[C@H]1C(N)=O (stereo partly drawn) |  | inconclusive: 35.5 µM [activator, single point]
25 | CC(C)N(c1ccccc1)c1ccc(NC(=O)COC(=O)CCN2C(=O)c3cccc([N+](=O)[O-])c3C2=O)cc1 |  | inconclusive: 11.2 µM [activator, full curve, poor fit]
26 | COc1ccc(OC)c(CC2C(=O)Nc3ccc(Br)cc32)c1 (stereo not drawn) |  | inconclusive: 25.1 µM [activator, partial curve]
27 | COc1ccc(NC(=S)NCC2CCN(c3ccc(OC)cc3)C2)cc1 (stereo not drawn) |  | inconclusive: 20 µM [activator, partial curve]
28 | CC(NC(=O)CSc1nc2sc3c(c2c(=O)n1-c1ccccc1)CCCC3)c1ccccc1 (stereo not drawn) |  | inconclusive: 6.31 µM [activator, full curve, poor fit]
29 | CCCCNC(=O)C1CCC(Cn2c(=O)c3sccc3n(CC(=O)Nc3ccccc3)c2=O)CC1 (stereo not drawn) | inactive: -2.33% | 
30 | O=C(NCc1ccco1)c1cnn2c1NC(c1ccc(Br)cc1)CC2C(F)(F)F (stereo not drawn) |  | inconclusive: 56.2 µM [activator, partial curve, poor fit]
31 | Cn1cccc1Cc1nnc(SCC(=O)Nc2cccc(F)c2)n1CCc1ccccc1 |  | inconclusive: 22.4 µM [activator, partial curve]
32 | COc1cc(COCC(O)CN2CCN(CCN3C(=O)c4cccc5cccc(c45)C3=O)CC2)cc(OC)c1OC (stereo not drawn) |  | inconclusive: 10 µM [activator, partial curve, poor fit]
33 | CCOc1ccc(CN(C)C(=O)c2ccc(S(=O)(=O)N(C)c3ccccc3OC)cc2)cc1 |  | inconclusive: 14.1 µM [activator, partial curve]
34 | COC(=O)[C@@]12C[C@@H](CC(=O)NCc3cccc4ccccc34)C(=O)N(Cc3cccc4ccccc34)C1=CCC(C)(C)C2 | inactive: 0.245% | 
35 | O=C(NCc1ccc(F)c(F)c1)C1CCC(CNS(=O)(=O)c2cccc3cccnc23)CC1 (stereo not drawn) |  | inconclusive: 20 µM [activator, partial curve, poor fit]
36 | CC(=O)N1CCCN(C(=O)CCn2nnc3ccccc32)CC1 | inactive: -24.8% | 
37 | Cn1c(=O)c2c(nc(SCCCO)n2Cc2ccccc2Cl)n(C)c1=O | inconclusive: 51.2% [activator] | 
38 | CCc1ccccc1NC(=O)c1ccc(F)c(S(=O)(=O)N2CCN(c3ccccc3OC)CC2)c1 |  | inconclusive: 3.55 µM [activator, full curve]
39 | CCc1c(C)nc2c(-c3ccccc3)c(C)nn2c1Nc1ccc(NC(C)=O)cc1 |  | inconclusive: 35.5 µM [activator, single point]
40 | O=C(NCCC1=CCCCC1)c1cc(COc2ccc(F)cc2Cl)on1 | inactive: 10.3% | 
41 | Nc1c(C(=O)NCC2CCCO2)sc2nc3c(c(-c4ccco4)c12)CC/C3=C\c1ccco1 (stereo not drawn) |  | inconclusive: 7.94 µM [activator, partial curve, poor fit]
42 | Cc1ccc(S(=O)(=O)N(CC(O)Cn2c3ccccc3c3ccccc32)c2cccc(C(=O)NCCO)c2)cc1 (stereo not drawn) |  | active: 20 µM

Row | SMILES | growth rescue (activation) | Potency
43 | COC(=O)[C@]12C[C@H](CC(=O)NCC34CC5CC(CC(C5)C3)C4)C(=O)N(CCC3=CCCCC3)C1=C[C@H](C1CCCC1)O[C@@H]2C | inactive: -2.49% | 
44 | CCCC(c1nnnn1C1CCCC1)N1CCN(c2ccccc2F)CC1 (stereo not drawn) | inactive: 8.3% | 
45 | COc1ccccc1Nc1ccc2c(O)cc(S(=O)(=O)O)cc2c1 |  | inconclusive: 50.1 µM [activator, single point]
46 | COCCCNc1nc2c(-c3cccc(Br)c3)nnn2c2ccccc12 | inactive: -15.4% | 
47 | Clc1ccc(-n2c(SCc3cccc4ccccc34)nnc2-c2cccnc2)cc1 |  | inconclusive: 25.1 µM [activator, single point]
48 | COC(=O)c1ccc2c(=O)n(CCCCCC(=O)N3CCN(c4cccc(C)c4C)CC3)c(=O)[nH]c2c1 |  | inconclusive: 31.6 µM [activator, single point]
49 | Cn1nc(-c2ccccc2F)c2cc(C(=O)N3CCN(c4ccccc4F)CC3)sc21 |  | inconclusive: 17.8 µM [activator, single point]
50 | CCOC(=O)/C(=C/c1c(C)n(C)c2ccc([N+](=O)[O-])cc12)C(C)=O | inactive: -3.45% | 
51 | CC1(C(=O)NS(=O)(=O)Cc2cccc(Cl)c2)CCN1C(=O)Cc1ccc(-c2ccccc2)cc1 (stereo not drawn) |  | inconclusive: 25.1 µM [activator, partial curve, poor fit]
52 | CCOC(=O)c1sc(NC(=O)c2ccc(S(=O)(=O)N(C)C)cc2)cc1C | inactive: -14.2% | 
53 | O=C(O)CC/C(=C\c1ccc(N2CCOCC2)c([N+](=O)[O-])c1)c1nc2ccccc2s1 |  | inconclusive: 25.1 µM [activator, partial curve]
54 | CCSc1nc2cc(OC)c(OC)cc2c(=O)n1CC | inconclusive: 86.7% [activator] | 
55 | Cc1ccc(C(=O)c2cc3c(cc2[N+](=O)[O-])OCCO3)cc1 | inactive: 4.08% | 
56 | Cc1ccccc1C(=O)NN1CC(C(=O)OCc2ccc(Cl)c(Cl)c2)CC1=O (stereo not drawn) |  | inconclusive: 31.6 µM [activator, partial curve, poor fit]
57 | CC(C)c1ccc(NC(=O)C2Cc3c(-c4ccc5c(c4)OCO5)ccnc3O2)cc1 (stereo not drawn) |  | inconclusive: 39.8 µM [activator, single point]
58 | COc1ccc2oc(C(=O)N(C)CCOc3ccc(Cl)cc3)c(C)c2c1 | inactive: 37.5% | 
59 | COC(=O)C1(Cc2cc(-c3ccccc3)no2)CCN(C(=O)OC(C)(C)C)CC1 |  | inconclusive: 50.1 µM [activator, single point]
60 | CC(O)(c1cccc(F)c1)c1nc(-c2cnc3ccccc3c2)cs1 (stereo not drawn) |  | inconclusive: 28.2 µM [activator, single point]
61 | Clc1ccc(-n2c(SC/C=C/c3ccccc3)nnc2-c2ccco2)cc1 |  | inconclusive: 25.1 µM [activator, single point]
62 | CC1(C(=O)NCc2ccccc2)CN(S(C)(=O)=O)CC(=O)N1Cc1cccc(C(F)(F)F)c1 (stereo not drawn) |  | inconclusive: 12.6 µM [activator, partial curve, poor fit]
63 | Cc1c(C(=O)NCc2ccc(C(F)(F)F)cc2)sc(=O)n1Cc1ccc(S(=O)(=O)N(C)C)cc1 |  | inconclusive: 35.5 µM [activator, single point]
